Assays:
serum IgA = settings: CVID patients with initial low Vitamin A levels; cited from earlier work
human SIgA in saliva [1] = format: in vivo
SIgA in saliva = settings: 20 mg beta carotene per day; compared to the placebo group; cited from earlier work
IgA = settings: maternal mice, supplementation during pregnancy and lactation; cited from earlier work
human SIgA in saliva [2] = test system: human SIgA in saliva

For Vitamin A, the “serum IgA levels” value (serum IgA) is given as “improved serum IgA levels”.
For `CC1=C(/C=C/C(C)=C/C=C/C(C)=C/C=C/C=C(C)/C=C/C=C(C)/C=C/C2=C(C)CCCC2(C)C)C(C)(C)CCC1` [Beta-carotene, beta-carotene], the “SIgA saliva, 3 days before exercise” value (human SIgA in saliva [1]; 3 days before exercise) was 128 microgram IgA per ml of saliva, the Recovery in saliva (human SIgA in saliva [1]; Reference (before exercise) = 100%) was 77% and the “SIgA saliva, day 1 after exercise” value (human SIgA in saliva [1]; day 1 after exercise) was 67 microgram IgA per ml of saliva. For the same compound, the “SIgA saliva, day 6 after exercise” value (human SIgA in saliva [1]; day 6 after exercise) was 98 microgram IgA per ml of saliva, the “saliva secretion of SIgA” value (SIgA in saliva) was “did not increase” and the “IgA transfer from maternal milk to neonates” value (IgA) was “useful for enhancing IgA transfer”.
With `CCCCCCCCCCCCCCCC(=O)OC/C=C(C)/C=C/C=C(C)/C=C/C1=C(C)CCCC1(C)C` [retinylpalmitate] the “before treatment saliva SIgA” value (human SIgA in saliva [2]; before treatment, baseline of the individual) was 113 mg/L, the “after treatment saliva SIgA” value (human SIgA in saliva [2]; one day after end of treatment, oral, two times per day for 3 weeks, 5 ml (50 mg)) was 96 mg/L and the SIgA % recovery (human SIgA in saliva [2]; saliva, reference (before treatment) = 100%) was 85%.
